# The list shows a part of the results. No stated cut-off is given here; in the data, active = 3.2 or more and inactive = the rest. Most of these values are background signal.
# How the values were obtained:
# Assay in all cases: enrichment score (SH2-bound / input frequency) (ratio); bacterial display of known human phosphotyrosine sites (pTyr-Var adds point mutants) read by sequencing; higher = stronger binding; tyrosines were phosphorylated by kinases first
# Conditions in all cases: peptide library: pTyr-Var
# [1] = target: SHP2 C-SH2 domain E139D
# [2] = target: SHP2 C-SH2 domain wild-type
# [3] = target: SHP2 N-SH2 domain L43F
# [4] = target: SHP2 N-SH2 domain T42A
# [5] = target: SHP2 N-SH2 domain T52S
# [6] = target: SHP2 N-SH2 domain wild-type
# 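Further: displayed peptides selected on beads carrying the immobilized SH2 domain, with library peptides lacking any tyrosine serving as negative controls.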
Binder,enrichment score [1],enrichment score [2],enrichment score [3],enrichment score [4],enrichment score [5],enrichment score [6]
GTGTAYLCGVK [ALPL_Y117_A114G],inactive: 1.13,inactive: 0.89,inactive: 0.768,inactive: 0.82,inactive: 0.634,inactive: 1.03
HGAGHYEDTIL [ALK_Y1604_P1599H],inactive: 0.828,inactive: 1.25,inactive: 1.09,inactive: 0.735,inactive: 0.945,inactive: 1.18
FGLQAYTKVKT [ALDH2_Y502_E504K_YF],inactive: 1.22,inactive: 1.73,inactive: 1.27,inactive: 1.72,inactive: 1.33,inactive: 1.18
MKDLTYSSLCF [ALOX5_Y446_A447S],inactive: 1.01,inactive: 1.08,inactive: 1.56,inactive: 1.22,inactive: 1.27,inactive: 1.63
IYLADYRIMEG [ALOX12B_Y318],inactive: 1.79,inactive: 1.59,inactive: 1.51,inactive: 1.59,inactive: 1.62,inactive: 1.71
SLKEFYGEDAK [ALDH3A1_Y272],inactive: 0.743,inactive: 0.797,inactive: 0.755,inactive: 0.718,inactive: 0.624,inactive: 0.719
LIQRNYKLTAQ [ALPK2_Y1975_A1978T],inactive: 0.7,inactive: 0.797,inactive: 0.759,inactive: 0.799,inactive: 0.528,inactive: 0.709
AFGEVYEGQVS [ALK_Y1131],inactive: 0.762,inactive: 0.594,inactive: 0.657,inactive: 0.599,inactive: 0.605,inactive: 0.761
FALAEYTEVKT [ALDH1A3_Y497_YF],inactive: 1.31,inactive: 1.03,inactive: 0.986,inactive: 2.02,inactive: 0.88,inactive: 1.03
HTLQLYRCREE [ALPK3_Y342],inactive: 0.488,inactive: 0.516,inactive: 0.275,inactive: 0.296,inactive: 0.225,inactive: 0.235
FGLQAYTEVKT [ALDH2_Y502_YF],inactive: 1.33,inactive: 2.32,inactive: 2.13,active: 6.66,inactive: 2.17,inactive: 1.23
HYPDVYAREQL [ALX3_Y181],inactive: 0.93,inactive: 0.721,inactive: 0.734,inactive: 0.94,inactive: 0.863,inactive: 0.865
LKEIRYPPYTD [ALDH3B2_Y362_H361R],inactive: 0.943,inactive: 0.883,inactive: 0.985,inactive: 0.923,inactive: 0.976,inactive: 0.888
DFNPNYCFAGK [ALK_Y1096_YF],inactive: 0.945,inactive: 0.705,inactive: 0.856,inactive: 0.638,inactive: 0.781,inactive: 0.89
FPLAEYTEVKT [ALDH1A3_Y497_A493P_YF],inactive: 0.893,inactive: 0.81,inactive: 1.01,inactive: 1.34,inactive: 0.891,inactive: 1.17
KLSFSYGRALQ [ALDOB_Y302],inactive: 1.08,inactive: 0.882,inactive: 0.929,inactive: 1.05,inactive: 0.98,inactive: 1.11
TIMTNYNPNYC [ALK_Y1092_D1091N],inactive: 1.04,inactive: 0.626,inactive: 0.782,inactive: 0.656,inactive: 0.638,inactive: 0.982
NYNPNYCFAGK [ALK_Y1096_D1091N],inactive: 0.753,inactive: 0.624,inactive: 0.692,inactive: 0.549,inactive: 0.604,inactive: 0.685
NDHHVYLEGTL [ALDOB_Y223],inactive: 1.02,inactive: 0.822,inactive: 0.915,inactive: 0.802,inactive: 0.893,inactive: 1.04

Binder,enrichment score [1],enrichment score [2],enrichment score [3],enrichment score [4],enrichment score [5],enrichment score [6]
ERCAQYKKDVA [ALDOA_Y138_G142V],inactive: 1.3,inactive: 1.18,inactive: 1.15,inactive: 1.25,inactive: 1.1,inactive: 1.24
YGLQAYTEVKT [ALDH2_Y502],inactive: 1.17,inactive: 2.26,inactive: 1.23,active: 4.48,inactive: 1.44,inactive: 1.01
AFQGKYTPSGQ [ALDOA_Y343_C339Y_YF],inactive: 0.954,inactive: 1.15,inactive: 0.944,inactive: 0.736,inactive: 0.725,inactive: 0.703
AFAEVYEGQVS [ALK_Y1131_G1128A],inactive: 0.697,inactive: 0.968,inactive: 0.936,inactive: 0.645,inactive: 0.804,inactive: 1.04
KLSFSYGWALQ [ALDOB_Y302_R304W],inactive: 1.5,inactive: 1.79,inactive: 1.73,inactive: 1.42,inactive: 1.55,inactive: 1.95
GTATAYLCGVK [ALPL_Y117],inactive: 0.705,inactive: 1.11,inactive: 0.752,inactive: 0.907,inactive: 0.687,inactive: 1.31
SRDTRYLVLAV [AMH_Y195],inactive: 1.9,inactive: 2.47,active: 3.21,active: 6.25,active: 3.2,inactive: 2.18
VLVSQYEKLNA [AMZ2_Y26],inactive: 0.791,inactive: 0.859,inactive: 0.664,inactive: 0.767,inactive: 1.01,inactive: 1.14
RELGEYGLQAY [ALDH2_Y497],inactive: 0.843,inactive: 0.848,inactive: 0.564,inactive: 0.661,inactive: 0.532,inactive: 0.779
MALDIYRASFF [ALK_Y1278_R1275L_YF],inactive: 1.74,inactive: 1.5,inactive: 1.6,inactive: 1.52,inactive: 1.53,inactive: 1.57
PGAGHYEDTIL [ALK_Y1604],inactive: 0.411,inactive: 0.5,inactive: 0.662,inactive: 0.537,inactive: 0.626,inactive: 0.63
YRASYYRKGGC [ALK_Y1283],inactive: 0.288,inactive: 0.315,inactive: 0.346,inactive: 0.328,inactive: 0.336,inactive: 0.287
RELGEYGLQAF [ALDH2_Y497_YF],inactive: 0.743,inactive: 0.654,inactive: 1,inactive: 0.473,inactive: 0.855,inactive: 0.765
MARDIYRASYY [ALK_Y1278],inactive: 0.9,inactive: 0.695,inactive: 0.802,inactive: 0.669,inactive: 0.848,inactive: 0.882
MTRDIYRASYY [ALK_Y1278_A1274T],inactive: 0.777,inactive: 0.829,inactive: 0.835,inactive: 0.796,inactive: 0.699,inactive: 0.974
VQEDIYDEFVE [ALDH2_Y332],inactive: 0.814,inactive: 1.07,inactive: 0.878,inactive: 0.852,inactive: 0.882,inactive: 0.891
NFNPNYCFAGK [ALK_Y1096_D1091N_YF],inactive: 0.712,inactive: 0.713,inactive: 0.664,inactive: 0.804,inactive: 0.748,inactive: 0.87
GQKVAYGGTGD [ALDH3A1_Y305],inactive: 0.45,inactive: 0.497,inactive: 0.449,inactive: 0.639,inactive: 0.543,inactive: 0.514

# From the supplement of paper PMC10369915
